Results: PubChem BioAssay AID360 (National Center for Advancing Translational Sciences (NCATS), 2006)
The campaign covered roughly 48,000 compounds. About 550 (1.1%) were called active. Roughly 4% stayed inconclusive and do not appear here. Cut-off read from the data, not from the text of the source: active = potency below about 15 µM; inconclusive = mostly about 16 µM to 33 µM; inactive = weaker than that. The list shows a part of the results.

These compounds were tested against Lysosomal acid glucosylceramidase (Homo sapiens) (UniProt P04062) (assay: Glucocerebrosidase). Details: purified enzyme, resorufin glucoside fluorescence (screen aimed at inhibitors), 20 min; series mostly up to 77 µM.
Sequence of UniProt P04062 (P04062 whole entry, looked up): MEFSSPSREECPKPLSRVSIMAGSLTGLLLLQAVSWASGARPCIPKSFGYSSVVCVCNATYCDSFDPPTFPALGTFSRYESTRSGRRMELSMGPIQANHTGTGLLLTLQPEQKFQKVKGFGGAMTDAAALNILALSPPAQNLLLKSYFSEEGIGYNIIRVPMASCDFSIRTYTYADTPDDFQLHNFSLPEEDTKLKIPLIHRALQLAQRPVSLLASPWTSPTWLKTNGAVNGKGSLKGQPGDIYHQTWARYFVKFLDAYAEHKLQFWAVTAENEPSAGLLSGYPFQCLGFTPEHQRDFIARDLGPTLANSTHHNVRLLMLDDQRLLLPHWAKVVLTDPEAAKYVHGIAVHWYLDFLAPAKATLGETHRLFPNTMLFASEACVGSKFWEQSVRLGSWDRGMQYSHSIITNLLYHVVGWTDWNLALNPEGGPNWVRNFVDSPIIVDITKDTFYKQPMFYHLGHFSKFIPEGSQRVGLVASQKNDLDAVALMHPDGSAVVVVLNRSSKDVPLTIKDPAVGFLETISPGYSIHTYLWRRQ
Outline: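 Compounds titrated against 0.2 nM normal enzyme, 30 uM resorufin beta-D-glucopyranoside substrate, citrate/phosphate buffer with taurocholate and tween-20, pH 5.9. Reaction ran 20 min at room temperature; fluorescence (Ex 548/Em 600) gave AC50.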
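Note: the screen sought inhibitors.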
Potency is the fitted concentration of half-maximal effect.

Potency, inactive:
CCOC(=O)CNc1ccc2c(c1)OCO2 > 76.9 µM, CCN1C(=O)C(CC(=O)NC2CCCCC2)N(CC)C1=O (centres undefined) > 76.9 µM, Cn1nnnc1SCC(=O)c1ccco1 > 76.9 µM, CCn1c(=O)cc(SCC(=O)NCCCN2CCN(c3ccc(F)cc3)CC2)c2ccccc21 > 76.9 µM, CC(=O)OC(C(=O)Nc1ccccc1)C(C)S(=O)(=O)c1ccccc1 (centres undefined) > 76.9 µM, COC(=O)c1cc(=O)n2c(-c3ccccc3)csc2n1 > 76.9 µM, O=C(Cc1ccc2cccnc2c1)c1ccc(O)cc1O > 76.9 µM, O=c1/c(=C/c2ccc(CNS(=O)(=O)c3ccccc3)o2)sc2n1CCN=2 > 76.9 µM, Cc1ccc(-n2c(C)cc(C)c(C#N)c2=O)cc1Cl > 76.9 µM, O=C(NCC1CCCO1)C1CCC(=O)N1CCc1ccccc1 (centres undefined) > 76.9 µM, Cc1cc(C)cc(N(CC(=O)N2CCC(C)CC2)S(C)(=O)=O)c1 > 76.9 µM, CC(C)(C)c1cc(CN(CCO)CCO)cc(C(C)(C)C)c1O > 76.9 µM, CCOC(=O)c1c(C)n(C)c2ccc(OC(=O)c3ccoc3)cc12 > 76.9 µM, Cc1ccc(C(C)C)c(OCc2nnc(SCC(=O)Nc3nccs3)n2C)c1 > 76.9 µM, CC1(C)CC(=O)C=C(NC2CCS(=O)(=O)C2)C1 (centres undefined) > 76.9 µM, O=C(OCn1nnc2ccccc2c1=O)C1CCN(S(=O)(=O)c2cccs2)CC1 > 76.9 µM, Cc1ccc(C(=O)Nc2ccccc2C(=O)NCc2ccco2)cc1S(=O)(=O)N1CCCCC1 > 76.9 µM, COCCn1c(SCC(=O)Nc2sc(C)c(C)c2C#N)nnc1-c1ccc(OC)cc1 > 76.9 µM, COc1ccc(OC)c(NC(=O)CCN2CCCCC2)c1 > 76.9 µM, CCCCCOC(=O)Cc1c(O)c2ccccc2[nH]c1=O > 76.9 µM, COc1ccccc1CNC(=O)CNCC1CCCO1 (centres undefined) > 76.9 µM, CCOC(=O)c1ccc(NC(=O)CSc2nnc(C)n2-c2ccccc2)cc1 > 76.9 µM, Cc1nc2c3cnn(-c4ccccc4)c3ncn2n1 > 76.9 µM, CCN(C(=O)CSc1nc2nc(C)cc(C)n2n1)c1cccc(C)c1 > 76.9 µM, Cn1c(=O)oc2cc(S(=O)(=O)N3CCN(c4cccc(Cl)c4)CC3)ccc21 > 76.9 µM, CCCCn1c(SCC(=O)NCc2cccs2)nc2c1c(=O)n(C)c(=O)n2C > 76.9 µM, CCC(Oc1ccccc1)C(=O)N1CCC(C(N)=O)CC1 (centres undefined) > 76.9 µM, COCCN(C(=O)c1csnn1)C(C(=O)NC1CCCCC1)c1sccc1C (centres undefined) > 76.9 µM, O=C(Cc1ccc(Cl)c(Cl)c1)OCC(=O)c1ccc[nH]1 > 76.9 µM, CCOc1ccc(N=C(NC#N)SC)cc1, CC(CCc1ccccc1)NC(=O)C1CCN(S(=O)(=O)N2CCCCC2)CC1 (centres undefined) > 76.9 µM, NC(=O)c1ccsc1NC(=O)c1nc(-c2ccccc2)n(-c2ccccc2)n1 > 76.9 µM, COC(=O)c1ccc(CS(=O)(=O)c2ccccc2C)o1 > 76.9 µM, CCOC(=O)C1CCN(C(=O)CNS(=O)(=O)c2cccs2)CC1 > 76.9 µM, O=C(CSc1nc(N2CCCCC2)nc(N2CCCCC2)n1)c1ccccc1 > 76.9 µM, CCS(=O)(=O)NCc1csc(C)n1 > 76.9 µM, c1ccc(-c2nc(CSc3nnc(-c4cccs4)o3)cs2)cc1 > 76.9 µM, COc1cccc(C(=O)N(CN2CCCC2=O)c2cccc(Cl)c2)c1OC > 76.9 µM, Cc1cc(N2C(=O)CCC2=O)n(-c2ccccc2)n1 > 76.9 µM, Cc1ccc(-n2cc(C(C)(C)C)[nH]c2=S)cc1 > 76.9 µM, O=C1CCC(=O)N1CCC(c1ccc(F)cc1)c1ccco1 (centres undefined) > 76.9 µM, COc1ccc(C(=O)NC2CC3CCCC(C2)N3CC(C)C)cc1OC (centres undefined) > 76.9 µM, CC1Cc2ccccc2N1S(=O)(=O)c1cccs1 (centres undefined) > 76.9 µM, CC(C)C1=C2CCCCC2NC(=O)N1 (centres undefined) > 76.9 µM, O=C(CSc1nc2ccccc2c(=O)n1-c1ccccc1)NCc1ccco1 > 76.9 µM, CCOc1cc(C)c(Cl)cc1S(=O)(=O)N1CCCC1 > 76.9 µM, O=C(O)c1cc(-c2cccnc2)nn1-c1ccccn1 > 76.9 µM, O=C(CSCc1ccc(Cl)cc1)c1ccco1 > 76.9 µM, C=CCOc1ccc(/C(O)=C2\C(=O)C(=O)N(CCCOC)C2c2ccc(O)c(OC)c2)cc1 (centres undefined) > 76.9 µM, CN(CCC#N)CC(=O)Nc1ccc(NC(=O)CN(C)CCC#N)cc1 > 76.9 µM, CCCCC(=O)Nc1ccc2c(c1)OCCO2 > 76.9 µM, Cc1ccc(C(=O)CSc2nc3cccnc3n2C)cc1 > 76.9 µM, CCC(C)(NC(=O)CNC(C)=O)C(=O)NC1CCCCC1 (centres undefined) > 76.9 µM, CCn1c(SCC(N)=O)nnc1-c1ccco1 > 76.9 µM, CCOc1ccc(-c2nnc(-c3snc(-c4ccc(F)cc4)c3N=CN(C)C)o2)cc1 > 76.9 µM, CCOC(=O)c1cc2sccc2n1CC(=O)N1c2ccccc2CC1C (centres undefined) > 76.9 µM, Cc1cc(N2C(=O)C(O)=C(C(=O)c3ccco3)C2c2cccnc2)no1 (centres undefined) > 76.9 µM, COC(=O)c1sc(=S)sc1C(=O)OC > 76.9 µM, CCOc1ccc(CN(CCO)CCO)cc1C(=O)OC > 76.9 µM, COc1ccc(CCNS(=O)(=O)c2ccc(S(=O)(=O)N3CCCC3)cc2)cc1OC > 76.9 µM, Cc1noc(C)c1CSc1nc2ccccc2n1C > 76.9 µM, CCc1cccc(NC(=O)Nc2cccs2)c1 > 76.9 µM, O=C1CC2CS(=O)(=O)CC2N1c1ccc(Oc2ccccc2)cc1 (centres undefined) > 76.9 µM, CC1(C)CC(=O)C2=C(C1)OC(N)=C(C#N)C21CCN(Cc2ccccc2)CC1 > 76.9 µM, Cc1cc(-n2c(C)cc(C(=O)CN3C(=O)NC4(CCCCCC4)C3=O)c2C)no1 > 76.9 µM, O=C1c2cccnc2C(O)N1Cc1cccs1 (centres undefined) > 76.9 µM, Cc1nnc(SCCn2c(N3CCCCC3)nc3c2c(=O)[nH]c(=O)n3C)s1 > 76.9 µM, CC(=O)Nc1cccc(NC(=O)c2cc(C)on2)c1 > 76.9 µM, Cc1ccc(S(=O)(=O)NC(=O)N2CCCC(C)(C)C2)cc1 > 76.9 µM, COC(=O)c1cc(CSc2nnc(NC3CCCCC3)s2)oc1C > 76.9 µM, CCOc1ccccc1NC(=O)CSc1nnc(-c2ccccc2Cl)n1Cc1ccco1 > 76.9 µM, CCC(=O)c1ccc(OCC(=O)N2CCc3cc(OC)c(OC)cc3C2)cc1 > 76.9 µM, CS(=O)(=O)Nc1ccccc1C(=O)N1CCCC1 > 76.9 µM, COC(=O)Cn1c(=O)c2c(nc(Br)n2CC(=O)OC)n(C)c1=O > 76.9 µM, CCOCC(=O)Nc1ccccc1C(=O)OCC > 76.9 µM, C=CCn1c(=O)/c(=C/c2ccc(Cl)cc2)s/c1=C(/C#N)c1nnc2n1CCCCC2 > 76.9 µM, CCC(C)(C)NC(=O)CN(C(=O)c1snc(C(N)=O)c1N)c1ccc2c(c1)OCCO2 > 76.9 µM, O=C(CN1C2=NCCN2c2ccccc21)c1ccc(Br)cc1 > 76.9 µM, CCn1c(SCC(=O)N2CCc3ccccc3C2)nc2c1c(=O)n(C)c(=O)n2C > 76.9 µM, O=C(CN1C(=O)COc2ccccc21)N(Cc1ccccc1)Cc1ccccn1 > 76.9 µM, O=S(=O)(c1ccc(F)cc1)N1CCN(CC(O)COCc2cccs2)CC1 (centres undefined) > 76.9 µM, COc1cccc(OCc2nc3ncc(Br)cc3[nH]2)c1 > 76.9 µM, CC1(C)CC(=O)c2cn3c(nc2C1)nc1ccccc13 > 76.9 µM, O=C1N=C(N2CCOCC2)S/C1=C1\C(=O)N(Cc2ccccc2)c2ccc(Br)cc21 > 76.9 µM, O=C(CS(=O)(=O)Cc1ccccc1)Nc1cccnc1 > 76.9 µM, CCOC(=O)C1CCCN(C(=O)c2ccccc2NC(C)=O)C1 (centres undefined) > 76.9 µM, NC(=O)c1cc2ccc(O)cc2oc1=Nc1ccccc1, COC(=O)C1C2C=CC3(CN(C(C)c4ccc(OC)cc4)C(=O)C13)O2 (centres undefined) > 76.9 µM, COc1ccc(C(C)NC(=O)C2CCCO2)cc1OC (centres undefined) > 76.9 µM, CCOc1cc2c(cc1C(C)(C)C)NC(=O)CS2, Cc1cccc(NC(=O)CC2CCC2)c1 > 76.9 µM, CCCCn1c(N)c(N(CC)C(=O)c2ccc3c(c2)S(=O)(=O)c2ccccc2C3=O)c(=O)[nH]c1=O > 76.9 µM, O=c1cc(CN2CCOCC2)c2c(ccc3ccccc32)o1 > 76.9 µM, CCOc1cc([C@H]2[C@@H]3CCCC[C@]3(O)CCN2CC(=O)NCc2ccco2)ccc1O > 76.9 µM
